# Results taken from PubChem BioAssay AID1030 (National Center for Advancing Translational Sciences (NCATS), 2008).
# Out of some 220,000 compounds screened, about 16,000 (7.3%) were called active. The shares of active, inactive and inconclusive entries below differ from those in the screen. The call rests on the fitted dose curve; in most records, active means well fitted inhibition curve with a large enough effect (not every such curve was filed as active); inconclusive means small, poorly fitted or top-dose-only effect, or another doubt; inactive means no such curve, though single readings can be large or run the other way. Potencies of inconclusive entries are left out as doubtful fits.
# Molecular target: Aldehyde dehydrogenase 1A1 (Homo sapiens) (UniProt P00352)
# Assay: qHTS Assay for Inhibitors of Aldehyde Dehydrogenase 1 (ALDH1A1)
# Settings: Purified ALDH1A1, NADH fluorescence, propionaldehyde substrate; series mostly up to 75.3 µM
# Potency means the concentration at half of the fitted maximal effect; tags describe the fitted curve by direction and shape.
# UniProt P00352, sequence (P00352 whole entry, looked up): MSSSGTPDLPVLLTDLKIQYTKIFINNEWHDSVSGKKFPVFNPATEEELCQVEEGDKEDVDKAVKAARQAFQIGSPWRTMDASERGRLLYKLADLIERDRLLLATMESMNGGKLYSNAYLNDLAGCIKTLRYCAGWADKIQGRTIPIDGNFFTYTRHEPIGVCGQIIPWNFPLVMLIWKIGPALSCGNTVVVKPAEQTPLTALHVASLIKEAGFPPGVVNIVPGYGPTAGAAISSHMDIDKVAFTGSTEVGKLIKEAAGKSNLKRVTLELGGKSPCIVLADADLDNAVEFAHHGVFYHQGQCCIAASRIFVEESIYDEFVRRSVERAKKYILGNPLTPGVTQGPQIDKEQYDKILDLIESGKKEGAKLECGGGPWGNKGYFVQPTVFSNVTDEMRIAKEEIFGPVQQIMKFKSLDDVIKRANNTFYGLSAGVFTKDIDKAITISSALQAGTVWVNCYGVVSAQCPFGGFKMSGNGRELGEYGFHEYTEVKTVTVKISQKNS
row,Structure (SMILES),Potency
1,S=c1[nH]nc(-c2ccc(Cl)cc2)n1-c1ccc2c(c1)OCCO2,"inconclusive [inhibitor, single point]"
2,CCOc1ccc(Nc2oc(-c3ccco3)nc2C#N)cc1,"inconclusive [inhibitor, single point]"
3,Brc1cc2[nH]cnc2c2ccccc12,active: 14.1 µM
4,Cc1csc(NC(=O)CCCSc2nc3ccccc3s2)n1,active: 10 µM
5,O=C(NC(=S)NCCC1=CCCCC1)c1cccnc1,active: 14.1 µM
6,COc1cc(O)c2c(c1)OC(c1ccc(O)cc1)CC2=O (stereo not given),"inconclusive [inhibitor, single point]"
7,CCCn1c2ccccc2c2nnc(SCc3[nH]c(=O)[nH]c3C(=O)CCCCC(=O)OCC)nc21,"inconclusive [inhibitor, partial curve]"
8,COCCCNC(=O)CN(CCc1ccccc1)S(=O)(=O)c1ccc(C)cc1,"inconclusive [inhibitor, single point]"
9,CCOC(=O)N1CCN(C(=O)c2ccc3c(c2)N(CC)CCS3)CC1,"inconclusive [inhibitor, single point]"
10,CCCOc1ccccc1C1NC(=O)NC(C)=C1C(=O)OCCOCC (stereo not given),"inconclusive [inhibitor, single point]"
11,CC1(C)CC(=O)N(CC(=O)O)c2ccccc2S1(=O)=O,"inconclusive [inhibitor, single point]"
12,O=C(CC1Nc2ccccc2NC1=O)NCC1COc2ccccc2O1 (stereo not given),"inconclusive [inhibitor, single point]"
13,Cc1[nH]c2ccccc2c1C(=O)CSC(=S)N(C)C1CCCCC1,"inconclusive [inhibitor, single point]"
14,O=C(Nc1nc2ccc(S(=O)(=O)N3CCCC3)cc2s1)c1ccccn1,"inconclusive [inhibitor, single point]"
15,CCN(CC)S(=O)(=O)c1ccc(N2CCOCC2)c(NC(=O)c2cc(=O)[nH]c3ccccc23)c1,active: 14.1 µM
16,COc1ccc(-n2nc(C(=O)NCC(=O)N3CCN(c4ccccn4)CC3)c3ccccc3c2=O)cc1Cl,"inconclusive [inhibitor, single point]"
17,Cc1cc(Cl)nc2c(C(C)C)cccc12,inactive
18,CCOC(=O)c1sc(NC(=O)c2cc(-c3ccccc3)nc3ccccc23)c(C#N)c1C,active: 3.16 µM
19,C=CCN1CC(c2nc3ccccc3n2Cc2cccc3ccccc23)CC1=O (stereo not given),"inconclusive [inhibitor, full curve]"
20,CN(CC(=O)N1CCCC1)S(=O)(=O)c1cc(Cl)ccc1Cl,"inconclusive [inhibitor, full curve]"
21,O=C(O)c1cccc(NC(=S)NC(=O)c2ccc(-c3ccccc3)cc2)c1,active: 25.1 µM
22,Clc1ccc(Oc2cccc(/C=N/n3cnnc3)c2)cc1,"inconclusive [inhibitor, single point]"
23,O=C(c1cccc2ccccc12)C1CCCN(C(=O)CCCn2cncn2)C1 (stereo not given),active: 10 µM
24,Cn1c(CSCc2ccc(Cl)cc2)n[nH]c1=S,inactive

row,Structure (SMILES),Potency
1,C=CCn1c(=O)c2ccccc2n2c(SCc3c(C(=O)OCC)oc4ccccc34)nnc12,inactive
2,CC1=C(/C=C/C(C)=C/C=C/C(C)=C/C(=O)O)C(C)(C)CCC1O (stereo not given),active: 6.31 µM
3,Cc1cccc(CSCCNC(=O)CCSc2ccccc2)c1,"inconclusive [inhibitor, partial curve]"
4,O=C(Nc1cccc(S(=O)(=O)C(F)F)c1)c1ccc(S(=O)(=O)N2CCCC2)cc1,"inconclusive [inhibitor, partial curve]"
5,C(=N\NC(=Nc1ccccc1)c1ccccn1)/c1ccccn1,"inconclusive [inhibitor, single point]"
6,CCN(CC)CCN(C(=O)c1ccc2c(c1)CCCC2)c1nc2ccc(F)cc2s1,"inconclusive [inhibitor, single point]"
7,COc1cc2cc(Oc3ccc4ccc(=O)oc4c3)c(=O)oc2cc1OC1OC(COC(=O)CC(C)(O)CC(=O)O)C(O)C(O)C1O (stereo not given),"inconclusive [inhibitor, partial curve]"
8,c1cnc2c(OCc3cn4cccnc4n3)cccc2c1,"inconclusive [inhibitor, single point]"
9,CCOC(=O)c1cnc(SCC(=O)Nc2sc(C)c(C)c2C#N)nc1N,active: 31.6 µM
10,COc1cccc2cc(-c3nc4ccccc4o3)c(=O)oc12,"inconclusive [inhibitor, single point]"
11,CC1CCCCN1Cc1c(O)ccc2c(=O)c(-c3nc4ccccc4s3)coc12 (stereo not given),"inconclusive [inhibitor, single point]"
12,O=C(O)c1ccc(CN(c2ccccn2)S(=O)(=O)c2ccccc2)cc1,"inconclusive [inhibitor, single point]"
13,O=C(O)CC(C(=O)O)c1cn(Cc2ccccc2)c2ccccc12 (stereo not given),active: 11.2 µM
14,CCOC(=O)/C(=C\c1cccnc1)C(=O)c1cc(C(C)=O)c(Nc2ccccc2)s1,"inconclusive [inhibitor, single point]"
15,O=C(NC(=S)Nc1ccccc1N1CCCC1)c1ccccc1[N+](=O)[O-],"inconclusive [inhibitor, single point]"
16,Cc1cccc(C2N(c3nccs3)C(=O)C3CCCN32)c1 (stereo not given),"inconclusive [inhibitor, partial curve]"
17,CCO[C@H]1OC(C(=O)N2CCN(C)CC2)=C[C@@H](C2CC2)[C@@H]1CCCO,inactive
18,O=[N+]([O-])c1ccc2nc(-c3ccccc3)oc2c1,"inconclusive [inhibitor, full curve]"
19,CC(=O)N(Cc1ccc(F)cc1)c1cccc(C)c1C,inactive
20,Cc1ccc(Sc2oc(/C=N/n3cnnc3)cc2Br)cc1,"inconclusive [inhibitor, partial curve]"
21,CCC(=O)c1ccc(OCC(O)Cn2nc(C)c(C(C)=O)c2C)cc1 (stereo not given),inactive
22,Cc1cccc(NC2=C(NCCO)C(=O)c3ccccc3C2=O)c1,active: 25.1 µM
23,CCOC(=O)C1C(C(=O)OC)=C(c2ccc(OC)cc2)c2ccccc2N1S(=O)(=O)C(F)(F)F (stereo not given),"inconclusive [inhibitor, single point]"
24,Cc1ccc(C(=O)NC(=S)NNC(=O)COc2ccccc2C)cc1,active: 11.2 µM

row,Structure (SMILES),Potency
1,Cc1ccc(C(=O)C(NC(=O)c2ccco2)Nc2sc3c(c2C(N)=O)CCCC3)cc1 (stereo not given),"inconclusive [inhibitor, single point]"
2,Cc1cccc(NC(=O)CN2C(=O)S/C(=C\c3ccc(O)c([N+](=O)[O-])c3)C2=O)c1,"inconclusive [inhibitor, single point]"
3,COc1ccc(C2CC(=O)c3ccc(OC)cc3O2)cc1 (stereo not given),inactive
4,CC(=O)C1=C(O)C(=O)N(c2ccc(S(=O)(=O)Nc3nccs3)cc2)C1c1ccc([N+](=O)[O-])cc1 (stereo not given),"inconclusive [inhibitor, partial curve]"
5,CN1CCOc2cc(S(=O)(=O)Nc3ccc(F)cc3)ccc21,"inconclusive [inhibitor, partial curve]"
6,O=c1/c(=C/c2ccc(O)cc2)sc2nc3cc(Br)cnc3n12,active: 20 µM
7,COc1cccc2c1OCC/C2=N\NC(=O)C(C)Oc1ccc([N+](=O)[O-])cc1 (stereo not given),"inconclusive [inhibitor, single point]"
8,N#Cc1ccc2ccn(CC(=O)NC3CCCCC3)c2c1,"inconclusive [inhibitor, single point]"
9,O=Cc1cn(CC(=O)Nc2ccc3c(c2)OCO3)c2ccccc12,"inconclusive [inhibitor, partial curve, poor fit]"
10,O=C(O)CCN1C(=O)C(=C2CCCCCC2)SC1=S,"inconclusive [inhibitor, partial curve]"
11,CCN(CC)c1ccc(N=Cc2ccccc2[N+](=O)[O-])cc1,active: 2 µM
12,COc1cc(CCC(=O)N2CCN(c3ncccn3)CC2)cc(OC)c1OC,inactive
13,CSC1=C(C#N)C(c2cccc(Br)c2)CC(=O)N1 (stereo not given),inactive
14,O=C(CSC1=Nc2ccccc2C2=NC(CC(=O)NCc3ccco3)C(=O)N12)NCC1CCCO1 (stereo not given),"inconclusive [inhibitor, partial curve]"
15,Cc1cccc(-n2c(C)cc(/C=C3\C(=N)N4N=C(CC(C)C)SC4=NC3=O)c2C)c1,"inconclusive [inhibitor, single point]"
16,O=C(C1=C[C@@H]2[C@H]3C(=O)N(c4ccccc4Cl)C(=O)[C@H]3[C@@H](C(=O)c3ccc(Cl)cc3)N2C=C1)c1ccccc1,"inconclusive [inhibitor, single point]"
17,CC(=O)N1CCN(c2nc(CC(C)C)c3c(c2C#N)CCC3)CC1,"inconclusive [inhibitor, partial curve]"
18,CCCOC(=O)CCn1c(=S)oc2ccccc21,"inconclusive [inhibitor, partial curve]"
19,N#CNC(N)=Nc1ccc(Cl)cc1,"inconclusive [inhibitor, partial curve]"
20,O=C(Nc1ccccc1)N(Cc1ccccc1)Cc1ccccc1,"inconclusive [inhibitor, single point]"
21,O=C(CSc1nnc(-c2ccncc2)n1Cc1ccccc1)Nc1nccs1,inactive
22,CC12CN3CCN(CC(C3)/C1=N\NC(=O)c1ccccc1N)C2,"inconclusive [inhibitor, partial curve]"
